Data: article PMC7819943, “Rice protein-binding microarrays: a tool to detect cis-acting elements near promoter regions in rice”
The list shows a part of the results.

What follows are sequences tested against T1, OsWOX13 (Oryza sativa, UniProt Q5QMM3 1-267) (assay: protein-binding microarray (RPBM); PBS, 2% BSA, 51.3 ng/ul salmon testes DNA, 50 uM zinc acetate, 200 nM TF, 25 C, 1 h; high values mean tight binding). Details: protein: recombinant; tags: N-terminal polyhistidine and DsRed monomer fusion (pET32a); label: CyDye5-dUTP incorporated in the synthesized complementary strand; 3' TTTTT single-stranded linker to array surface; dsDNA, one strand shown.
T1 sequence: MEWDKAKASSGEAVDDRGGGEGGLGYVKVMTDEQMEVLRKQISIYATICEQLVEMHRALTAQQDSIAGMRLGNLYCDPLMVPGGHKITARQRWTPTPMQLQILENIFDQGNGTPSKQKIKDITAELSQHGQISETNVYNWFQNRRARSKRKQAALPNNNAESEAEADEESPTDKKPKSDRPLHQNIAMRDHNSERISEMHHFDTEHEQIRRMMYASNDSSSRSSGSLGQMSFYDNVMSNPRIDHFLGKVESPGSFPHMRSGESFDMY
Procedure, shortened: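 A custom Agilent array was converted to double-stranded form by primer extension with Cy5-dUTP and blocked with 2% BSA. Protein at 200 nM in PBS with 2% BSA, salmon testes DNA and 50 µM zinc acetate was applied for 1 h at 25 °C, followed by washing. The proteins were polyhistidine–DsRed N-terminal fusions of transcription factors, expressed in E. coli BL21-CodonPlus and Ni–NTA-purified. The binding signal is per-feature fluorescence intensity (arbitrary units) from an Axon 4000B scanner.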

**Q.** With “ATTGAATTCACAAACATTTTAATTGTTTGGTTAAGTGCATCGGAGTCACCTAGTGCAG” as the sequence, how does the binding signal read?
**A.** 3520 fluorescence intensity (a.u.)

**Q.** For “CCGTACATAGGATGATTAGAGCAGGTACAATAGTAGCCTACGGAGTCACCTAGTGCAG”, which binding signal is on record?
**A.** 3460 fluorescence intensity (a.u.)

**Q.** With “ACATAACTTAAAACAATCACGTTCTGAAACAAAATTTATTCGGAGTCACCTAGTGCAG” as the sequence, how does the binding signal read?
**A.** 4010 fluorescence intensity (a.u.)

**Q.** “GTGCCCTTCAATTTTATTTGATGAAATATCAAAACTCCCTCGGAGTCACCTAGTGCAG” was tested. Which binding signal did it give?
**A.** 3830 fluorescence intensity (a.u.)

**Q.** How did the binding signal turn out when “ATATAATGGAATGGACTTCCATTGTCGAGGAAGTTACCACCGGAGTCACCTAGTGCAG” was run?
**A.** 5080 fluorescence intensity (a.u.)

**Q.** “ATAAATTTGTCACGTGCATAAGAAATTTCACGATCCAACACGGAGTCACCTAGTGCAG” was tested. Which binding signal did it give?
**A.** 4090 fluorescence intensity (a.u.)

**Q.** For “TCCTTAAACAAATCATGTGTTCTTTAATGCTTGGCAGAGTCGGAGTCACCTAGTGCAG”, which binding signal is on record?
**A.** 3310 fluorescence intensity (a.u.)

**Q.** “TTTAGCATGATTTCTTATGTATTTACTAAATTTGGCAACACGGAGTCACCTAGTGCAG” was tested. Which binding signal did it give?
**A.** 4100 fluorescence intensity (a.u.)

**Q.** How did the binding signal turn out when “AAGTTGTATAATTATATTTATAGCACTACATTTCAATAAGCGGAGTCACCTAGTGCAG” was run?
**A.** 5420 fluorescence intensity (a.u.)

**Q.** How did the binding signal turn out when “ATTAAGATTGATTAATTGTTGCTTGGTTAATAGCCACTTACGGAGTCACCTAGTGCAG” was run?
**A.** 47500 fluorescence intensity (a.u.)

**Q.** “ATCCAATTAACCCCTAAAATAAAATGGGAGAGGATTCTAACGGAGTCACCTAGTGCAG” was tested. Which binding signal did it give?
**A.** 6150 fluorescence intensity (a.u.)

**Q.** How did the binding signal turn out when “ATCACCGGTATAATTATACAGTATACATGGACAAGTAACGCGGAGTCACCTAGTGCAG” was run?
**A.** 3940 fluorescence intensity (a.u.)

**Q.** “TTGAGCACTAATTAATCATTAGGTGGCCTAATCAACAGCTCGGAGTCACCTAGTGCAG” was tested. Which binding signal did it give?
**A.** 22000 fluorescence intensity (a.u.)

**Q.** Which binding signal does the source give for “CTGATTAATTGCCAGTAATTTGATTTCAACCTTACGTGTACGGAGTCACCTAGTGCAG” here?
**A.** 53000 fluorescence intensity (a.u.)

**Q.** With “GCATTCAATTTATGGTCAATTCTATCCATCTATGACTTTACGGAGTCACCTAGTGCAG” as the sequence, how does the binding signal read?
**A.** 7170 fluorescence intensity (a.u.)

**Q.** Which binding signal does the source give for “CATAGATTAATATGAAATATATAACTCCACAAATATGCAACGGAGTCACCTAGTGCAG” here?
**A.** 9440 fluorescence intensity (a.u.)

**Q.** Which binding signal does the source give for “AAGGAAAATTAATAGCATACAGGCATGCATTTACGTACTTCGGAGTCACCTAGTGCAG” here?
**A.** 5500 fluorescence intensity (a.u.)

**Q.** “TGTGACTTAATCACGAAGAACTTCGACGTGAATGGCCAATCGGAGTCACCTAGTGCAG” was tested. Which binding signal did it give?
**A.** 3750 fluorescence intensity (a.u.)

**Q.** How did the binding signal turn out when “GTGATGAATTCATTAATTTTAAGATATATATGATGGCCAACGGAGTCACCTAGTGCAG” was run?
**A.** 18200 fluorescence intensity (a.u.)

**Q.** “TGTGTCATGTTCTGATTGGCTGTGGTTGGTTTGATTTTCTCGGAGTCACCTAGTGCAG” was tested. Which binding signal did it give?
**A.** 21100 fluorescence intensity (a.u.)

**Q.** Which binding signal does the source give for “AAAATTAAGTGATTGATCAATAAGAATAAGTGAGTCAATTCGGAGTCACCTAGTGCAG” here?
**A.** 40400 fluorescence intensity (a.u.)

**Q.** For “GTCCTAGCTTTGTGATGATTAATTTAGAGGTGGTCAAGATCGGAGTCACCTAGTGCAG”, which binding signal is on record?
**A.** 3870 fluorescence intensity (a.u.)

**Q.** Which binding signal does the source give for “ATCTTCTTGTTATTTGCATATTAATTAAATAACTATAAAACGGAGTCACCTAGTGCAG” here?
**A.** 4520 fluorescence intensity (a.u.)

**Q.** Which binding signal does the source give for “TCTCGTTGATAGCTTGATACATCTCTCTCGATTCGTAGAGCGGAGTCACCTAGTGCAG” here?
**A.** 4320 fluorescence intensity (a.u.)

**Q.** For “AGTAAATTAATGTGATTTATGATAATTTAAATTTAAATAGCGGAGTCACCTAGTGCAG”, which binding signal is on record?
**A.** 50800 fluorescence intensity (a.u.)

**Q.** Which binding signal does the source give for “CCAAATTTGGCTTAAGATTTGTCCAGCTACAAGTTTGCTACGGAGTCACCTAGTGCAG” here?
**A.** 8110 fluorescence intensity (a.u.)

**Q.** “CAAACTCACAATCAACGAACAGTTTTAAACGTAAATACGGCGGAGTCACCTAGTGCAG” was tested. Which binding signal did it give?
**A.** 4320 fluorescence intensity (a.u.)

**Q.** Which binding signal does the source give for “ACTCAACAGATTAACTTAAATATGAGCCTGTTGCTGACTGCGGAGTCACCTAGTGCAG” here?
**A.** 5980 fluorescence intensity (a.u.)

**Q.** “TTCTGAGTGTATAATTAATGTTTATGTGGTCACGTACTTGCGGAGTCACCTAGTGCAG” was tested. Which binding signal did it give?
**A.** 4250 fluorescence intensity (a.u.)

**Q.** For “GGTGATGATGTAACTTAAATGTGATGGGTAATTATGTAACCGGAGTCACCTAGTGCAG”, which binding signal is on record?
**A.** 33100 fluorescence intensity (a.u.)

**Q.** How did the binding signal turn out when “GGTCTATTGATGGGTGAAAACTCTTACCCATTAGGTACGTCGGAGTCACCTAGTGCAG” was run?
**A.** 7020 fluorescence intensity (a.u.)

**Q.** “ATTTAGTTCATTAATTGAATTGCCTAACAATTGACAAGGGCGGAGTCACCTAGTGCAG” was tested. Which binding signal did it give?
**A.** 20000 fluorescence intensity (a.u.)

**Q.** With “CAAATCAATCCACTTGATGGGTGGGTCCACTTGCTACACACGGAGTCACCTAGTGCAG” as the sequence, how does the binding signal read?
**A.** 14800 fluorescence intensity (a.u.)

**Q.** Which binding signal does the source give for “TAAAATTTGGAACTGAAATTTCTAACATTTCGGGTCCATCCGGAGTCACCTAGTGCAG” here?
**A.** 4680 fluorescence intensity (a.u.)

**Q.** “AAAATTTGGTCATTAATTTATCCTGATTTTCTGAGGTATTCGGAGTCACCTAGTGCAG” was tested. Which binding signal did it give?
**A.** 21800 fluorescence intensity (a.u.)

**Q.** With “AAAACTAATTTAGTATTATAAATATTACTATATTTGTCTACGGAGTCACCTAGTGCAG” as the sequence, how does the binding signal read?
**A.** 26700 fluorescence intensity (a.u.)

**Q.** For “CCTCGCGAGCATGGCCATGATTGGAAGCGAGCATGGCCCCCGGAGTCACCTAGTGCAG”, which binding signal is on record?
**A.** 4890 fluorescence intensity (a.u.)

**Q.** With “TTAATTAATTGATCACTTCCAAATCATGTAGCAGTACTGTCGGAGTCACCTAGTGCAG” as the sequence, how does the binding signal read?
**A.** 65400 fluorescence intensity (a.u.)

**Q.** “ATTAATTAGATGAAGATTGTATTGCCTCAACCTTTATTTTCGGAGTCACCTAGTGCAG” was tested. Which binding signal did it give?
**A.** 45400 fluorescence intensity (a.u.)

**Q.** For “GGATTAATTATACTTAATAAATTCGTATAACAGTTTACATCGGAGTCACCTAGTGCAG”, which binding signal is on record?
**A.** 5190 fluorescence intensity (a.u.)

**Q.** How did the binding signal turn out when “TTTTATTGATAGTATAGGTAAGACACGTTCAAATATGATACGGAGTCACCTAGTGCAG” was run?
**A.** 3780 fluorescence intensity (a.u.)

**Q.** For “AATCCCATGGCTAAAATTGGCTAATTATCCACACATTATCCGGAGTCACCTAGTGCAG”, which binding signal is on record?
**A.** 4320 fluorescence intensity (a.u.)
